Test results reported in patent CN111484558A (UNIV SHANGHAI JIAOTONG, dated 2020).

Molecular target: T1, 人CD47 (on CHO-HuCD47 cells and on Raji cells) (human)
T1 construct: whole, on cells; also called 人源CD47; CHO-HuCD47细胞
Assay: competition flow cytometry on Raji cells; competitor SIRPα-Ig-Biotin, APC-streptavidin

B1: 信号调节蛋白α片段-抗FcRn单链抗体融合蛋白(SIRPα-F8) (other)
chain: [left out - about 120 residues]KPSKLGGGGSGGGGSGGGGSQAVLTQPPSASGTPGQRVTIS[left out - about 80 residues]LFGGGTKLTVLGSRGGGGSGGGGSGGGGSLEMAQVQLVQSGAEVKKPGASVKVSCKTSGYTFTGYYIHWVRQAPGQGLEWMGHISPHSGGTDYAQKFQGRVTMTRDTSISTAYMELSRLRSDDTAVYYCARGVYGMDRWGQGTLVTVSSTSGQAGQHHHHHHGLNDIFEAQKIEWHE
notes: Expressed in HEK293-6E cells
  binding result: binds
